The values below come from the supplement of paper PMC11417369.

± gives the standard deviation of the averaged measurements. Some of the results follow.

For this test, the system named is PfAP2-EXP AP2 domain (GST-tagged). Description: gcPBM binding intensity (ln(normalized median fluorescence intensity)); higher = stronger DNA binding. Summed up: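 Alexa488 anti-GST antibody, scanned at 488 nm, detected GST-tagged P. falciparum DNA-binding domains that had been expressed in E. coli and incubated for 1 h on an Agilent 4 × 180k array. The array carried primer-extended double-stranded 36-bp intergenic genomic probes and negative controls. Binding intensity is the highest Masliner-normalised natural-log median intensity across replicate spots of either orientation of each probe.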
“ATCTTAACTCTATGCACACATAAAAGTATATAAATA [CACACA_site2256]”: the “gcPBM binding intensity (ln)” value is 8.63 ± 0.28.
In the case of “TCCTTATTACTTTTTTAAGTCGTAATGAAAGAAAAA [CACACA_negctrl_site1497]” it was 8.2 ± 0.36.
The value for “TTTTATAAATTATAATTCTATTATCTGTTCTTTTTA [TGCATGCA_negctrl_site487]” was 8.51 ± 0.41; that for “CATACATACATACATACACACATACAGATATATATA [CACACA_site4890]” was 9.15 ± 0.32; that for “TTTTATTTTTTTAAATGTACACATATTAATGTAAGG [XGTACX_site319]” was 8.41 ± 0.16.
The value for “ATCATCCAAGATCTTACACACATATTAAATAAATAA [CACACA_site1473]” was 8.48 ± 0.48; that for “ATCATGTTATATACATGTACATATATATATATATAA [XGTACX_site609]” was 8.51 ± 0.4.
For the sequence “TTTTTAAAACATCACTGTACCCGTTATGGTGAACAT [XGTACX_site3483]”, the “gcPBM binding intensity (ln)” value stood at 8.46 ± 0.28.
In the case of “ATATTCTTTTTATGTGGTACTAATTTTTTTTTTTTA [XGTACX_site3791]” it was 8.69 ± 0.42; in that of “TAAAACATAAGAGACACACACACATATATATATATA [CACACA_site3643]”, 9.8 ± 0.68; in that of “AGTAAAAGAAAGCACACACACATGTATATAGGTATG [CACACA_site7759]”, 8.87 ± 0.52.
For the sequence “TTTTTAAATAATTGAAGTACACATTTCTCTAAGTTG [XGTACX_site2846]”, the “gcPBM binding intensity (ln)” value was found to be 8.2 ± 0.28.
The value for “TTTTTTTTTTTGTTTAAACACACGAGCTTTCTTCTT [CACACA_site4085]” was 8.77 ± 0.55.
In the case of “CATGTATTTTATATTACACACTAATATTATAGATAT [CACACA_site6819]” it was 8.27 ± 0.28.
In the case of “AAACATATAAACATATGTACATATAAACATATATAC [XGTACX_site5026]” it was 8.64 ± 0.33; in that of “ATTTCTCAATCTTAATGTACAAAAAAAAGGAAAAAG [XGTACX_site1210]”, 8.65 ± 0.45; in that of “ATATGTTTTGTTTACGTGCACTGCTTTGTTTATATA [GTGCAC_site9622]”, 9.68 ± 0.45.
Regarding “AGCATATTATCATATTGTACATATTATAATATATAT [XGTACX_site3907]”, the “gcPBM binding intensity (ln)” value came to 8.69 ± 0.42.
The value for “AGCAAATCAGATAGTAGTACATTTAAATTAGACTTT [XGTACX_site4172]” was 8.48 ± 0.25.
In the case of “TAAAAATTTTAATAAACACACAATGAGATATTGAAT [CACACA_site5704]” it was 8.55 ± 0.45.
For the sequence “CAAAATAAAAATAACACACACATTTATATATATACA [CACACA_site1190]”, the “gcPBM binding intensity (ln)” value turned out to be 8.62 ± 0.32.
The value for “TTTTTAATTATCTTTTCCCATGGTTTCTCCGTTTTT [XGTACX_negctrl_site39]” was 8.87 ± 0.61.
The value for “GTATTAGATAAATACACACACAAGCATATATTTTTA [CACACA_site3431]” was 8.27 ± 0.33.
The value for “TCTATTCATTTTGAAGGTACACATTTCTTTATAATA [XGTACX_site6218]” was 8.45 ± 0.35; that for “AATAAATATATAAATACACACAAACATACATATATA [CACACA_site9340]” was 8.73 ± 0.39.
In the case of “AAAAATATATATATATATATATATATAAGGAATATA [XGTACX_negctrl_site450]”, the “gcPBM binding intensity (ln)” value amounted to 8.7 ± 0.33.
In the case of “AATATATCATTATATAAACACACAATATGTTTTTTA [CACACA_site9260]” it was 8.14 ± 0.43.
With “AATACAATATAGTGAAAAATAATTAAATACAATAAG [XGTACX_negctrl_site161]”, the “gcPBM binding intensity (ln)” value was found to be 8.62 ± 0.29.
In the case of “CGTAAACAATTATGATGTACATAAAATATATATATA [XGTACX_site2705]” it was 9.6 ± 0.22; in that of “TTGTTCCACAAAAATTTAGTCAAAAAAAAATAAAAA [TGCATGCA_negctrl_site546]”, 8.28 ± 0.45; in that of “AATGAATAACAATACTATATGATTTTTAATACATTA [XGTACX_negctrl_site42]”, 8.12 ± 0.4.
The value for “ACAAAAAAAAAAATAACACACATGGGGGTGTATAAA [CACACA_site3797]” was 9.2 ± 0.26; that for “TTAAATTTTTTTTTGTGTACGAAAAACAGAAAAAAT [XGTACX_site8625]” was 8.63 ± 0.37; that for “ATATATATATACATATGTACATATAAAATAATTTTG [XGTACX_site3731]” was 9.56 ± 0.12.
The value for “TATGTGTATGGGAATGCATGTAAATATGTACATATA [TGCATGCA_site737]” was 9.31 ± 0.38; that for “AAAATTAAAATATATACACACATATATATATTAAAT [CACACA_site4419]” was 8.23 ± 0.38.
With “TCTTCCCAAATAAAGTGTACATAAATACGAATAATA [XGTACX_site4363]”, the “gcPBM binding intensity (ln)” value turned out to be 8.74 ± 0.53.
The value for “TAATGTATATGTAAATGTACATGTATATTATTTAAA [XGTACX_site1840]” was 8.36 ± 0.25; that for “AAGATATTTGTATAATGTACAAAACTATATAAAACT [XGTACX_site1433]” was 8.61 ± 0.24.
Take “ATCAAAGATAAATTTACACACATATATATATATATA [CACACA_site2969]”: the “gcPBM binding intensity (ln)” value turned out to be 10.1 ± 0.26.
In the case of “TATTTTCATTTGCGCGCACACAATAATAATTTTTGG [CACACA_site3525]” it was 9.04 ± 0.47.
The value for “TATAAATTAATGACATGTACATAAAAGTATAGATGT [XGTACX_site6534]” was 8.47 ± 0.2.
Regarding “TAAAAAATATAAATGACACACACTTAAAAACAAAGA [CACACA_site671]”, the “gcPBM binding intensity (ln)” value turned out to be 8.77 ± 0.44.
The value for “AACAATTATTTATCTACACACTTTTATGTTATTTAC [CACACA_site9]” was 8.77 ± 0.4.
In the case of “AAATATACAAAATATACACACATATTTATTTATGAT [CACACA_site2051]” it was 8.19 ± 0.38; in that of “TATTAAACAAATTATGCAAAAATAAATCAATATGTT [CACACA_negctrl_site171]”, 8.68 ± 0.43.
The value for “CAATTTATAAAGAAAACACACATATACATATATACA [CACACA_site1260]” was 8.51 ± 0.35; that for “TTAGGAAGCTCACAAAATAAAGTGAAAAGAAGAAAA [XGTACX_negctrl_site572]” was 8.84 ± 0.62.
With “ATTATTTTATAATTCACACATAAATAAAAAAAAAAT [CACACA_site5290]”, the “gcPBM binding intensity (ln)” value turned out to be 8.36 ± 0.45.
In the case of “AAAAGTTTTATTTAAATGAATTAATCTTTACTATAT [CACACA_negctrl_site282]” it was 7.98 ± 0.54.
As for “TGATTTCCAGGTTATTGTACAAAATTAATTTTCGAA [XGTACX_site2491]”, the “gcPBM binding intensity (ln)” value was 8.62 ± 0.4.
As to “ATATATATAAAACACACACACAAAAAAAATAAAGAC [CACACA_site117]”, the “gcPBM binding intensity (ln)” value turned out to be 9.34 ± 0.41.
Regarding “TTTTGTAGTTTATAAATAAAAGAGAATATGGTGCTT [CACACA_negctrl_site413]”, the “gcPBM binding intensity (ln)” value came to 8.54 ± 0.4.
Take “TAAATATTATTTCATAGTACTTTTATTATTGATATA [XGTACX_site5566]”: the “gcPBM binding intensity (ln)” value was 8.45 ± 0.3.
As for “TAAATAAATATATATACACACATATATATATATATA [CACACA_site598]”, the “gcPBM binding intensity (ln)” value was 10.1 ± 0.36.
Turning to “TGTATGTATTAATGCGCACACAAAAAATAACAATAT [CACACA_site1848]”, the “gcPBM binding intensity (ln)” value came to 9.04 ± 0.34.
In the case of “AAAAAAAAAAAAAAGAGTACACAGACGTTCAAAGGT [XGTACX_site7566]” it was 9.04 ± 0.56; in that of “ATAAAAAAAAAATAATGTACTTATATATATATATAT [XGTACX_site8282]”, 10.1 ± 0.32; in that of “ATATATATATATAAATGTACATTGTGTGTTGTAAGA [XGTACX_site2434]”, 10 ± 0.29.
As for “TATTGATTTAGAAACACACACTCGAAGATGTTTAAC [CACACA_site1129]”, the “gcPBM binding intensity (ln)” value turned out to be 8.4 ± 0.3.
In the case of “TTTAAAAAATGTTATATTATATAATTAAAAAAAAAA [CACACA_negctrl_site1509]”, the “gcPBM binding intensity (ln)” value came out at 8.21 ± 0.51.
In the case of “ACAGAGCTTTAAATACGTACATAATATATATTAAAT [XGTACX_site8221]” it was 8.71 ± 0.39; in that of “ATATAGATATATAGTAGTACTTGTTATATAAGATAA [XGTACX_site6336]”, 8.38 ± 0.37.
Consider GTATATTATTTACGTTTGCACTTCATTTTATAGTAA, for which the “gcPBM binding intensity (ln)” value amounted to 9.25 ± 0.37.
The value for “TTCTTCAAAAAAAATTGTACACATCTCTCAAATGTT [XGTACX_site2952]” was 8.6 ± 0.21; that for “AATGGATGAATGAATGTATGAATGAATGTATGAATG [CACACA_negctrl_site91]” was 8.78 ± 0.54.
The value for “TATTAATTGTGGCACCTTGTATGTTTACAATGACAT [CACACA_negctrl_site1383]” was 8.84 ± 0.31; that for “AATATCATATAAAAATGTACAAATTCTAAAACACGA [XGTACX_site1442]” was 8.85 ± 0.38; that for “TATTTTTTATAATAATGTACATATATATATATAATA [XGTACX_site2329]” was 8.36 ± 0.27.
In the case of “TATAGATACATATACACACACACACCCACATATATA [CACACA_site3436]” it was 8.79 ± 0.49; in that of “ATGTATGTGTAACATAGTACTTTTTAAAAGGATATT [XGTACX_site5328]”, 8.71 ± 0.38.
“ATCAAACCTTTTAAATGTACATTCGGAGTAAAAAAA [XGTACX_site282]”: the “gcPBM binding intensity (ln)” value amounted to 8.48 ± 0.51.
The value for “GTATTCATGCTAAAGGTGCAATAATTTTTATAATAA [GTGCAC_site9603]” was 8.77 ± 0.38.
With “AAGATAAAATTATGTAGTACAAAAAAAAATAAAAAA [XGTACX_site139]”, the “gcPBM binding intensity (ln)” value worked out at 8.52 ± 0.49.
The value for “CGCCTATAAGCTTAGACACACAAATAAATAAATATA [CACACA_site1264]” was 8.19 ± 0.52.
The value for “TTAAAAATGTTGGAAAGTACATATTTTTTAAAAGTA [XGTACX_site802]” was 8.39 ± 0.4; that for “TATTGGGGGTATAAACACAGTAAGTAAATAAATAAA [CACACA_negctrl_site1680]” was 8.91 ± 0.22; that for “TACCTAATTCGGTCCCGTACAAGTTAGTTTCAATTC [XGTACX_site2703]” was 8.49 ± 0.4.
The value for “TAATGTACTTAAACCGCACACATATAAAAAAATAAA [CACACA_site8926]” was 8.47 ± 0.38; that for “TTATTTTAATTTTTGGTGCATATTCAAGTGTACCTT [GTGCAC_site9791]” was 8.51 ± 0.29.
Regarding “TTTTGTAAAATTAATTTATTATACATATATATTTCT [GTGCAC_negctrl_site728]”, the “gcPBM binding intensity (ln)” value is 8.2 ± 0.42.
In the case of “TATTTACATATTTATATACACACTTTTGCGTGTCTG [CACACA_site1110]” it was 8.51 ± 0.32.
In the case of “ATAAATAATATAAATACACACTAAAAAAGATATATA [CACACA_site6397]” it was 8.64 ± 0.36; in that of “AAATAAAATACAATATGATAAAATGTTATCATATAT [CACACA_negctrl_site538]”, 8.35 ± 0.38.
The value for “AATAAAAGGAATAATTGTACATAATGATTATACGTT [XGTACX_site7548]” was 8.51 ± 0.34; that for “GTTGTAAAAAGAAAATGTACGTAATAAATATATATA [XGTACX_site3081]” was 8.93 ± 0.38; that for “AATAAAAAAAAAAATAATATATATGTATAAATATAT [CACACA_negctrl_site1561]” was 8.25 ± 0.48.
With “AATACTCCATTGTATAGTACATATATTTTTATTTAT [XGTACX_site3641]”, the “gcPBM binding intensity (ln)” value turned out to be 8.45 ± 0.35.
